# Measured values as given in the supplement of paper PMC8047034.
# Counter-ions that a name gives are not always drawn. The list shows a part of the results. Single values are uncertain, as repeats are few or missing.
# Tested on: Ov4Carbo
# Test: log2 surviving fraction (library drug vs vehicle, or drug + carboplatin vs carboplatin alone; relative to plate median); ovarian cancer lines: OVCAR4 is platinum-sensitive and Ov4Carbo platinum-resistant; higher = more cell survival
# Conditions: library drug concentration 10 µM; 7 days; carboplatin co-treatment 0 µM
row,SMILES,log2 surviving fraction
1,CCCC(=O)OCOC(=O)C1=C(C)NC(C)=C(C(=O)OC)C1c1cccc(Cl)c1Cl (centres undefined) [Cleviprex (Clevidipine)],1.18
2,C=CCOc1ccccc1OCC(O)CNC(C)C (centres undefined) [Oxprenolol HCl],-0.56
3,Cc1ccc(C(=O)c2cc(O)c(O)c([N+](=O)[O-])c2)cc1 [Tolcapone],1.39
4,C[C@H]1COc2c(N3CCN(C)CC3)c(F)cc3c(=O)c(C(=O)O)cn1c23 [Levofloxacin (Levaquin)],0.683
5,Cc1cccc([C@H](C)c2c[nH]cn2)c1C [Dexmedetomidine HCl (Precedex)],0.746
6,CN1CCC(=C2c3ccccc3CCc3cccnc32)CC1 [Azatadine dimaleate],-0.903
7,CC(C)C(=O)Oc1ccc(CO)cc1[C@H](CCN(C(C)C)C(C)C)c1ccccc1 [Fesoterodine fumarate (Toviaz)],0.32
8,O=P(O)(O)C(Cl)(Cl)P(=O)(O)O [Clodronate Disodium],1.05
9,CC[C@H]1OC(=O)[C@H](C)[C@@H](O[C@H]2C[C@@](C)(OC)[C@@H](O)[C@H](C)O2)[C@H](C)[C@@H](O[C@@H]2O[C@H](C)C[C@H](N(C)C)[C@H]2O)[C@](C)(O)C[C@@H](C)CN(C)[C@H](C)[C@@H](O)[C@]1(C)O [Azithromycin Dihydrate],-0.18
10,CNC(=O)Oc1ccc2c(c1)[C@]1(C)CCN(C)[C@@H]1N2C [Physostigmine Hemisulfate Salt],0.225
11,CCOC(=O)CC(=O)N1CCSC1COc1ccccc1OC (centres undefined) [Moguisteine],0.146
12,O=C(Nc1ccc([N+](=O)[O-])cc1Cl)c1cc(Cl)ccc1O [Niclosamide (Niclocide)],-8.08
13,CCCC1O[C@@H]2C[C@H]3[C@@H]4CCC5=CC(=O)C=C[C@]5(C)[C@H]4[C@@H](O)C[C@]3(C)[C@]2(C(=O)CO)O1 (some centres undefined) [Budesonide],-0.284
14,COC(=O)[C@H]1[C@H]2C[C@@H]3c4[nH]c5cc(OC)ccc5c4CCN3C[C@H]2C[C@@H](OC(=O)c2cc(OC)c(OC)c(OC)c2)[C@@H]1OC [Reserpine],-4.57
15,CC(C(=O)O)c1ccc(C(=O)c2cccs2)cc1 (centres undefined) [Suprofen (Profenal)],-0.458
16,Cc1ccc(C(=O)Nc2ccc(CN3CCN(C)CC3)c(C(F)(F)F)c2)cc1C#Cc1cnc2cccnn12,-8.44
17,CCCCOc1ccc(C(=O)CCN2CCCCC2)cc1 [Dyclonine HCl],-0.272
18,CN(C)CCCN1c2ccccc2CCc2ccccc21 [Imipramine HCl],-2
19,Nc1nc(N)nc(-c2cc(Cl)ccc2Cl)n1 [Irsogladine],-0.408
20,CN1C(C(=O)Nc2ccccn2)=C(O)c2ccccc2S1(=O)=O [Piroxicam (Feldene)],-0.456

row,SMILES,log2 surviving fraction
1,Cc1cc(-n2c(=O)[nH]c(=O)n(C)c2=O)ccc1Oc1ccc(SC(F)(F)F)cc1 [toltrazuril],0.585
2,Cc1cc2c(cc1S(N)(=O)=O)S(=O)(=O)CCC2 [Meticrane],0.23
3,CC(=O)Nc1ncc([N+](=O)[O-])s1 [Nithiamide],2.35
4,[O-][n+]1cccc(CO)c1 [Mepiroxol],-0.416
5,O=P1(N(CCCl)CCCl)NCCCO1 (centres undefined) [Cyclophosphamide monohydrate],1.54
6,c1ccc2[nH]c(-c3cscn3)nc2c1 [Thiabendazole],0.416
7,[O-][n+]1ccccc1[S-].[O-][n+]1ccccc1[S-].[Zn+2] [Pyrithione zinc],-7.32
8,C[C@@H](O)[C@H]1C(=O)N2C(C(=O)[O-])=C(SC3Cn4cnc[n+]4C3)[C@H](C)[C@H]12 (some centres undefined) [Biapenem],0.612
9,COc1cc2nc(N(C)CCCNC(=O)C3CCCO3)nc(N)c2cc1OC (centres undefined) [Alfuzosin hydrochloride (Uroxatral)],0.177
10,C=CCc1cc(OC)c(O)c(C(=O)NCCO)c1 [Alibendol],-1.37
11,CCOC(=O)c1c(C)n(C)c2ccc(O)cc12 [Mecarbinate],1.21
12,CN1[C@@H]2CC[C@H]1C[C@@H](OC(c1ccccc1)c1ccccc1)C2 [Benztropine mesylate],-2.99
13,CC(C)C[C@H](NC(=O)[C@@H](O)[C@H](N)Cc1ccccc1)C(=O)O [Ubenimex (Bestatin)],-0.00306
14,CC(C)(C)c1ccc(C(O)CCCN2CCC(C(O)(c3ccccc3)c3ccccc3)CC2)cc1 (centres undefined) [Terfenadine],-3.28
15,CC(=O)NS(=O)(=O)c1ccc(N)cc1 [sulfacetamide sodium],0.51
16,N=C(N)NC(=O)c1nc(Cl)c(N)nc1N [Amiloride hydrochloride (Midamor)],-1.81
17,C[C@@H]1C/C=C/C=C/C=C/C=C/[C@H](O[C@@H]2O[C@H](C)[C@@H](O)[C@H](N)[C@@H]2O)C[C@@H]2O[C@](O)(C[C@@H](O)C[C@H]3O[C@@H]3/C=C/C(=O)O1)C[C@H](O)[C@H]2C(=O)O [Natamycin (Pimaricin)],-0.353
18,NC1CCN(c2c(F)cc3c(=O)c(C(=O)O)cn(C4CC4)c3c2Cl)C1 (centres undefined),1.1
19,Clc1ccc(CSC(Cn2ccnc2)c2ccc(Cl)cc2Cl)cc1 (centres undefined) [Sulconazole Nitrate],-1.75
